Experimental data reported in PubChem BioAssay AID485297 (National Center for Advancing Translational Sciences (NCATS), 2010).
Screen size: about 320,000 compounds; about 9,100 (2.8%) were called active. Inconclusive means that the source gave no clear call. Such entries were picked first, then a sample of the others. The call rests on the fitted dose curve; in most records, active means well fitted activation curve with a large enough effect; inconclusive means small, poorly fitted or top-dose-only effect; inactive means no such curve, though single readings can be large or run the other way. Potencies of inconclusive entries are left out as doubtful fits.

assay: qHTS Assay for Rab9 Promoter Activators; conditions: Huh7 Rab9 promoter-luciferase reporter, luminescence, 24 h; series mostly up to 9.22 µM; activation, negative = inhibition: at the top concentration; further: nearly all actives have a fitted effect of over 60% in size; on activation, negative = inhibition: % of control where 0% means no effect
Method in brief: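 Huh7 cells stably carrying a Rab9 promoter-luciferase reporter, 1500 cells per well in OP-MEM I with 10% FBS, treated with compound 24 hours at 37C. Luciferase activity read by luminescence after 10 minutes with Amplite reagent.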
Potency means the concentration at half of the fitted maximal effect; tags describe the fitted curve by direction and shape.

SMILES	Potency	activation, negative = inhibition
CCn1c2ccccc2c2cc(NC(=O)C(=O)N3CCOCC3)ccc21	inconclusive [activator, partial curve]	
COC(=O)C1=C(O)/C(=C\c2cc(C)n(-c3ccccc3C)c2C)N=C1C	inconclusive [activator, partial curve]	
CCOc1ccc(N(CC(=O)Nc2ccc(OC)cc2)S(C)(=O)=O)cc1	inconclusive [activator, partial curve]	
NNc1nncc2ccccc12	active: 2.31 µM	
O=C(Nc1nc(-c2cc3ccccc3oc2=O)cs1)c1ccco1		inactive: 15.7%
CCOc1cccc(C(=O)NC(=S)Nc2ccccc2)c1	inconclusive [activator, single point]	
CC(C)Oc1ccccc1/C=N/Nc1ccccc1[N+](=O)[O-]	inconclusive [activator, single point]	
O=c1c2oc3ccccc3c2ncn1Cc1ccc(Cl)cc1		inactive: 1.84%
CCn1c(C)csc1=NC(=O)c1ccccc1	inconclusive [activator, partial curve]	
COc1ccc(/C=C2\SC(N3CCCCC3)=NC2=O)cc1	inconclusive [activator, single point]	
c1cncc(CSc2ccc(-c3cccs3)nn2)c1	active: 3.55 µM	
Cc1nc2ccc(NC(=O)c3ccc([N+](=O)[O-])cc3[N+](=O)[O-])cc2s1		inactive: -5.49%
CCc1ccc(N(C(=O)c2snc(C(N)=O)c2N)C(C(=O)NC2CCCC2)c2ccco2)cc1 (centres undefined)	inconclusive [activator, single point]	
Cc1onc(-c2c(F)cccc2Cl)c1C(=O)Nc1ccc(Cl)c(S(=O)(=O)N(C)C)c1		inactive: -13%
COC(=O)c1ccc(OCC(=O)N2CCCc3ccccc32)cc1		inactive: -0.923%
COc1cccc(NC(=O)Nc2cccc(C)n2)c1	inconclusive [activator, partial curve]	
COc1cccc(N/C=C/C(=O)c2ccc(Cl)cc2)c1	active: 0.501 µM	
Clc1cccc(Cl)c1C1=NOC(c2nnc(-c3ccccc3)o2)C1 (centres undefined)	inconclusive [activator, partial curve]	
CC(C)(O)C(=O)N=Nc1c(O)[nH]c2ccccc12	inconclusive [activator, partial curve]	
O=C(N/N=C\C=C\c1ccco1)c1cc(-c2ccc3ccccc3c2)n[nH]1	inconclusive [activator, partial curve]	
COc1ccc(CC(=O)O/N=C(\N)c2ccc(C)cc2)cc1	inconclusive [activator, partial curve]	
S=c1[nH]c2cc3ccccc3cc2[nH]1	inactive	
Cc1ccc2oc(C(=O)NCC3CCOCC3)c(C)c2c1	inconclusive [activator, partial curve]	
COC(=O)Cc1ccc(OC(=O)C2CCN(S(=O)(=O)c3ccc(OC)c(OC)c3)CC2)cc1		inactive: -2.26%
CN(C)C(=O)N1CCCC(C(=O)NCCc2ccccc2)C1 (centres undefined)	inconclusive [activator, partial curve, poor fit]	

SMILES	Potency	activation, negative = inhibition
Cc1ccc(/C=C/C(=O)c2ccc(O)cc2)cc1	inconclusive [activator, single point]	
CCCN(C(=O)c1ccco1)c1nnc(-c2cccc(C)c2)s1	inconclusive [activator, single point]	
Cc1cc(C)n(CC(=O)Nc2ccc3c(c2)OCO3)c(=O)c1C#N		inactive: 11.4%
Cc1nc(NC(=O)c2ccccc2)sc1-c1csc(Nc2ccc(C(=O)O)cc2)n1	inconclusive [activator, single point]	
O=c1oc(/C=C/c2ccccc2)nc2sc3c(c12)CCC3	inconclusive [activator, single point]	
Cc1nn2c(nc1=O)SCC(c1ccccc1)=N2	active: 3.55 µM	
Cc1ccc(SCCSc2nc(C)cc(=O)[nH]2)cc1	inconclusive [activator, partial curve]	
O=[N+]([O-])c1cccc(-c2ccc(SCc3ccccn3)nn2)c1	active: 3.98 µM	
Nc1ccc(S(=O)(=O)NC2(C(F)(F)F)NC(=O)N(Cc3ccccc3)C2=O)cc1 (centres undefined)		inactive: 2.22%
CC(=O)c1ccc(NC(=O)/C(Cl)=C/c2ccccc2)cc1	active: 3.98 µM	
O=[N+]([O-])c1ccccc1COc1ccc(Cl)c2cccnc12	active: 0.282 µM	
CCCCn1c(N)c(N(Cc2ccccc2OC)C(=O)CSCC(=O)Nc2cccc(C)c2)c(=O)[nH]c1=O		inactive: 1.27%
Nc1ccc(N2CCCCCC2)cc1	inconclusive [activator, single point]	
CC(C)Sc1nnc(-c2c[nH]c3ccccc23)n1C	inconclusive [activator, single point]	
CCC(=O)c1ccc(/C=C/c2nc3ccccc3n2C)o1	active: 0.316 µM	
CC(=O)Nc1ccc(Nc2cc(C)nc3c(-c4ccccc4)cnn23)cc1	inconclusive [activator, full curve]	
CC(=O)N1c2ccc(S(=O)(=O)NCCC(=O)Nc3ccc(C)c(F)c3)cc2CC1C (centres undefined)		inactive: -0.8%
Cn1cc(C(=O)N/N=C/c2cccs2)c2ccccc21	inconclusive [activator, partial curve]	
COc1cccc2oc3ccc(C#Cc4ccccn4)cc3c(=O)c12	active: 1.78 µM	
Cn1cccc1/C=C1/SC(=S)N(CC(=O)O)C1=O		inactive: -2.21%
CC1CC(C)CN(CC(=O)N2CCOCC2)C1 (centres undefined)	inconclusive [activator, single point]	
CCOC(=O)c1ccc(NCc2nc3ccccc3n2C)cc1	active: 3.16 µM	
O=C(Nc1cccc(-c2nc3ccccc3[nH]2)c1)c1ccc(C(=O)Nc2cccc(-c3nc4ccccc4[nH]3)c2)cc1	inconclusive [activator, single point]	
Cn1c(CCNC(=O)c2ccco2)nc2cc(NC(=O)NC3CCCCC3)ccc21	inconclusive [activator, partial curve]	
